# The supplement of paper PMC8728848
# This is one part of the list.
# How the values were obtained:
# Assay in all cases: glycan array binding signal (z-score within array); higher = stronger binding
# Settings in all cases: glycan notation: IUPAC condensed, linker removed
# [1] = biological target: Neu5Ac(a2-3)Gal(b1-4)GlcNAc(b1-2)Man(a1-3)[GlcNAc(b1-2)Man(b1-4)GlcNAc(b1-2)Man(a1-6)]Man(b1-4)GlcNAc(b1-4)GlcNAc
# Outline: (§1)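 The Consortium for Functional Glycomics database supplied 3228 glycan arrays, of which those lacking an available protein sequence were dropped. The binding signal, a within-array Z-score, was averaged across arrays of the same protein sequence and across linkers. Negative scores can be read as non-binding.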
# [2] = biological target: Neu5Ac(a2-3)Gal(b1-4)GlcNAc(b1-2)Man(a1-3)[Neu5Ac(a2-6)Gal(b1-4)GlcNAc(b1-2)Man(a1-6)]Man(b1-4)GlcNAc(b1-4)GlcNAc
# Outline: as §1
# [3] = biological target: Neu5Ac(a2-3)Gal(b1-4)GlcNAc(b1-3)Gal
# Outline: as §1
# [4] = biological target: Neu5Ac(a2-3)Gal(b1-4)GlcNAc(b1-3)Gal(b1-3)GlcNAc
# Outline: as §1
# [5] = biological target: Neu5Ac(a2-3)Gal(b1-4)GlcNAc(b1-3)Gal(b1-4)GlcNAc
# Outline: as §1
# [6] = biological target: Neu5Ac(a2-3)Gal(b1-4)GlcNAc(b1-3)Gal(b1-4)GlcNAc(b1-3)Gal(b1-4)GlcNAc
# Outline: as §1
# [7] = biological target: Neu5Ac(a2-3)Gal(b1-4)GlcNAc(b1-3)Gal(b1-4)[Fuc(a1-3)]GlcNAc
# Outline: as §1
# [8] = biological target: Neu5Ac(a2-3)Gal(b1-4)GlcNAc(b1-3)GalNAc
# Outline: as §1
# [9] = biological target: Neu5Ac(a2-3)Gal(b1-4)GlcNAc(b1-6)[Gal(b1-3)]GalNAc
# Outline: as §1
# [10] = biological target: Neu5Ac(a2-3)Gal(b1-4)GlcNAc(b1-6)[Neu5Ac(a2-3)Gal(b1-3)]GalNAc
# Outline: as §1
# [11] = biological target: Neu5Ac(a2-3)Gal(b1-4)GlcNAc6S
# Outline: as §1
# [12] = biological target: Neu5Ac(a2-3)Gal(b1-4)[Fuc(a1-3)]GlcNAc
# Outline: as §1
# [13] = biological target: Neu5Ac(a2-3)Gal(b1-4)[Fuc(a1-3)]GlcNAc(b1-3)Gal
# Outline: as §1
# [14] = biological target: Neu5Ac(a2-3)Gal(b1-4)[Fuc(a1-3)]GlcNAc(b1-3)Gal(b1-4)GlcNAc
# Outline: as §1
# [15] = biological target: Neu5Ac(a2-3)Gal(b1-4)[Fuc(a1-3)]GlcNAc(b1-3)Gal(b1-4)[Fuc(a1-3)]GlcNAc(b1-3)Gal(b1-4)[Fuc(a1-3)]GlcNAc
# Outline: as §1
# [16] = biological target: Neu5Ac(a2-3)Gal(b1-4)[Fuc(a1-3)]GlcNAc(b1-3)GalNAc
# Outline: as §1
# [17] = biological target: Neu5Ac(a2-3)Gal(b1-4)[Fuc(a1-3)]GlcNAc(b1-6)[Gal(b1-3)]GalNAc
# Outline: as §1
# [18] = biological target: Neu5Ac(a2-3)Gal(b1-4)[Fuc(a1-3)]GlcNAc(b1-6)[Neu5Ac(a2-3)Gal(b1-3)]GalNAc
# Outline: as §1
# [19] = biological target: Neu5Ac(a2-3)Gal(b1-4)[Fuc(a1-3)]GlcNAc6S
# Outline: as §1
# [20] = biological target: Neu5Ac(a2-3)Gal6S(b1-4)GlcNAc
# Outline: as §1
# [21] = biological target: Neu5Ac(a2-3)Gal6S(b1-4)[Fuc(a1-3)]GlcNAc
# Outline: as §1
# Neu5Ac(a2-3)GalNAc = biological target: Neu5Ac(a2-3)GalNAc
# Outline: as §1
# [22] = biological target: Neu5Ac(a2-3)GalNAc(b1-4)GlcNAc
# Outline: as §1
# [23] = biological target: Neu5Ac(a2-3)[GalNAc(b1-4)]Gal(b1-4)Glc
# Outline: as §1
# [24] = biological target: Neu5Ac(a2-3)[GalNAc(b1-4)]Gal(b1-4)GlcNAc
# Outline: as §1
# [25] = biological target: Neu5Ac(a2-3)[GalNAc(b1-4)]Gal(b1-4)GlcNAc(b1-3)GalNAc
# Outline: as §1
# [26] = biological target: Neu5Ac(a2-3)[Neu5Ac(a2-6)]GalNAc
# Outline: as §1
# Neu5Ac(a2-6)Gal = biological target: Neu5Ac(a2-6)Gal
# Outline: as §1
# [27] = biological target: Neu5Ac(a2-6)Gal(b1-3)GlcNAc(b1-3)[Gal(b1-4)GlcNAc(b1-6)]Gal(b1-4)Glc
# Outline: as §1
# Neu5Ac(a2-6)Gal(b1-4)Glc = biological target: Neu5Ac(a2-6)Gal(b1-4)Glc
# Outline: as §1
# [28] = biological target: Neu5Ac(a2-6)Gal(b1-4)GlcNAc
# Outline: as §1
# [29] = biological target: Neu5Ac(a2-6)Gal(b1-4)GlcNAc(b1-2)Man(a1-3)Man(b1-4)GlcNAc(b1-4)GlcNAc
# Outline: as §1
# [30] = biological target: Neu5Ac(a2-6)Gal(b1-4)GlcNAc(b1-2)Man(a1-3)[Gal(b1-4)GlcNAc(b1-2)Man(a1-6)]Man(b1-4)GlcNAc(b1-4)GlcNAc
# Outline: as §1
# [31] = biological target: Neu5Ac(a2-6)Gal(b1-4)GlcNAc(b1-2)Man(a1-3)[GlcNAc(b1-2)Man(a1-6)]Man(b1-4)GlcNAc(b1-4)GlcNAc
# Outline: as §1
# [32] = biological target: Neu5Ac(a2-6)Gal(b1-4)GlcNAc(b1-2)Man(a1-3)[GlcNAc(b1-2)Man(b1-4)GlcNAc(b1-2)Man(a1-6)]Man(b1-4)GlcNAc(b1-4)GlcNAc
# Outline: as §1
# [33] = biological target: Neu5Ac(a2-6)Gal(b1-4)GlcNAc(b1-2)Man(a1-3)[Man(a1-6)]Man(b1-4)GlcNAc(b1-4)GlcNAc
# Outline: as §1
binder,measurement,setting,value
"Eosinophil cationic protein (ECP) (Homo sapiens), P12724 (protein) MVPKLFTSQICLLLLLGLMGVEGSLHARPPQFTRAQWFAIQHISLNPPRCTIAMRAINNYRWRCKNQNTFLRTTFANVVNVCGNQSIRCPHNRTLNNCHRSRFRVPLLHCDLINPGAQNISNCTYADRPGRRFYVVACDNRDPRDSPRYPVVPVHLDTTI",glycan array binding signal (z-score),[1],0.247
same,glycan array binding signal (z-score),[2],0.325
same,glycan array binding signal (z-score),[3],0.316
same,glycan array binding signal (z-score),[4],-0.128
same,glycan array binding signal (z-score),[5],-0.305
same,glycan array binding signal (z-score),[6],-0.428
same,glycan array binding signal (z-score),[7],0.75
same,glycan array binding signal (z-score),[8],-0.375
same,glycan array binding signal (z-score),[9],0.24
same,glycan array binding signal (z-score),[10],-0.004
same,glycan array binding signal (z-score),[11],0.087
same,glycan array binding signal (z-score),[12],-0.048
same,glycan array binding signal (z-score),[13],-0.244
same,glycan array binding signal (z-score),[14],-0.023
same,glycan array binding signal (z-score),[15],-0.251
same,glycan array binding signal (z-score),[16],1.73
same,glycan array binding signal (z-score),[17],1.99
same,glycan array binding signal (z-score),[18],1.04
same,glycan array binding signal (z-score),[19],-0.138
same,glycan array binding signal (z-score),[20],-0.268
same,glycan array binding signal (z-score),[21],0.109
same,glycan array binding signal (z-score),Neu5Ac(a2-3)GalNAc,-0.118
same,glycan array binding signal (z-score),[22],-0.029
same,glycan array binding signal (z-score),[23],-0.187
same,glycan array binding signal (z-score),[24],-0.243
same,glycan array binding signal (z-score),[25],-0.051
same,glycan array binding signal (z-score),[26],-0.286
same,glycan array binding signal (z-score),Neu5Ac(a2-6)Gal,-0.316
same,glycan array binding signal (z-score),[27],-0.216
same,glycan array binding signal (z-score),Neu5Ac(a2-6)Gal(b1-4)Glc,0.151
same,glycan array binding signal (z-score),[28],-0.027
same,glycan array binding signal (z-score),[29],-0.443
same,glycan array binding signal (z-score),[30],-0.088
same,glycan array binding signal (z-score),[31],-0.015
same,glycan array binding signal (z-score),[32],-0.216
same,glycan array binding signal (z-score),[33],-0.018
